{"source": "paper PMC4263767", "about": "“IL-28B is a Key Regulator of B- and T-Cell Vaccine Responses against Influenza” (PLoS Pathogens, 2014)", "tested_on": "STAT1 phosphorylation in THP1-derived macrophages", "assay": "STAT1 phosphorylation in THP1-derived macrophages (flow cytometry)", "type": "cell-based", "conditions": "after stimulation, 5 experiments"}
{"substance": "IFN-α", "values": [{"measurement": "time of peak STAT1 phosphorylation", "value": 15, "unit": "min"}]}
